# From PubChem BioAssay AID485344 (National Center for Advancing Translational Sciences (NCATS), 2010)
# Out of some 340,000 compounds screened, about 6,900 (2%) were called active. Cut-off read from the data, not from the text of the source: active = inhibition above about 30%; inactive = below that, where a call was filed. The list shows a part of the results, in another mix than the full data. Entries without a call were filed so in the source.
# Biological target: D(2) dopamine receptor (Homo sapiens) (UniProt P14416)
# Sequence of UniProt P14416 (P14416 whole entry, looked up): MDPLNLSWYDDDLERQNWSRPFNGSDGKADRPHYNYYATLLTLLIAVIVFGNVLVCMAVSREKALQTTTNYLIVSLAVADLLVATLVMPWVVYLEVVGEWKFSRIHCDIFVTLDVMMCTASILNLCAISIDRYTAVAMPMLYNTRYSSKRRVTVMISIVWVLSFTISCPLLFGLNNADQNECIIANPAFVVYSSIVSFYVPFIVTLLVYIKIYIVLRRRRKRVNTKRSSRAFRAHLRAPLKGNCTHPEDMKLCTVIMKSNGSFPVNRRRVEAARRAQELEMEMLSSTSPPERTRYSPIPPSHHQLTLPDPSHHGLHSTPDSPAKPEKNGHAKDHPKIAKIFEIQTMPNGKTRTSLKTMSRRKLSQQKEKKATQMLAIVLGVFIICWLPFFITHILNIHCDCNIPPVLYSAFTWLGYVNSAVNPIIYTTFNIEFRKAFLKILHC
# Test: HTS Assay for Allosteric Antagonists of the Human D2 Dopamine Receptor: Primary Screen for Antagonists; note: 0% is about no effect
# Conditions: HEK293 TREx D2 cells, calcium flux, dopamine EC80; at 10 µM; stronger effect = higher value
# Procedure, shortened: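 Calcium mobilization kinetics were recorded at 1 s intervals in tetracycline-induced HEK293 T-REx D2 cells, first for 180 s after compound addition and then 180 s after EC80 dopamine.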
row,SMILES,inhibition
1,Cc1cccc(-c2nc3nc(C)cc(N4CCN(c5ccccc5)CC4)n3n2)c1,1.97%
2,COc1cccc(CNS(=O)(=O)c2ccc3c(c2)N(C)CCO3)c1,active: 38.8%
3,CC(C)(C)C1CCc2c(sc(NC(=O)c3ccncc3)c2C(=O)Nc2ccccc2Cl)C1 (centres undefined),-27.3%
4,COc1cccc(N2CCN(Cc3nnc(-c4ccc5c(c4)OCO5)o3)CC2)c1,2.89%
5,COc1ccc(NS(=O)(=O)c2ccc(NS(=O)(=O)c3ccc4c(c3)OCCO4)cc2)cc1,-0.712%
6,Cc1c(C(=O)NCc2ccccc2Cl)sc2nc3n(c(=O)c12)CCC3,17.7%
7,COc1ccc(S(=O)(=O)N(C)C)cc1NC(=O)Cc1cccs1,active: 34.3%
8,Cc1cc(C)cc(N2CCn3c2nc2c3c(=O)n(CCc3ccccc3)c(=O)n2C)c1,4.45%
9,COc1ccc(N(CC(=O)NCc2ccc(C)cc2)S(=O)(=O)c2c(C)[nH]c(=O)[nH]c2=O)cc1,1.8%
10,COc1ccc(Br)cc1CNC(=O)c1ccc2c(c1)nc1n2CCCCC1,-11.9%
11,Cc1cccc(CN2C(=O)c3ccccc3S(=O)(=O)c3ccc(C(=O)N4CCN(c5cc(C)ccc5C)CC4)cc32)c1,-2.38%
12,CCc1ccc(-c2cc3c(N4CCN(c5ccccc5)CC4)nccn3n2)cc1,23.6%
13,COc1cccc(C(=O)n2nc(-c3ccco3)nc2NCc2cccs2)c1,7.92%
14,CC1=C(C(=O)OCc2ccc(C)cc2)C(c2ccccc2Cl)CC(=O)N1 (centres undefined),-0.403%
15,CCC(C)(C)NC(=O)/C=C/c1cc(OC)c(OC)c(S(=O)(=O)N2CCc3ccccc32)c1,active: 40.9%
16,Cc1nc2c3ccccc3nc(NNC(=O)CCC(=O)N3CCN(c4ccccc4)CC3)n2n1,-6.81%
17,Cc1cccc(OCC(=O)Nc2ccc3c(c2)nc(CCNC(=O)c2ccco2)n3C)c1,-6.3%
18,CCOC(=O)c1c(C)oc2nc(C)nc(NC(C)c3ccccc3)c12 (centres undefined),3.23%
19,CCOC(=O)CNC(=O)CSc1nnc(-c2ccco2)n1N,active: 34.3%
20,CCCNC(=O)CCC(=O)N1Cc2ccccc2Oc2ncccc21,-6.39%
21,COc1ccccc1N1CCN(C(=O)C2CC=CCC2C(=O)O)CC1 (centres undefined),active: 32.9%
22,COc1ccc(C(=O)CN2C(=O)N(c3cc(C)ccc3C)S(=O)(=O)c3ccccc32)cc1,14.2%
23,CCc1ccccc1NC(=O)C1CCN(C2=NS(=O)(=O)C(c3ccc(C)c(C)c3)=C2C)CC1,0.69%
24,Cc1cc(C)cc(NC(=O)c2sc3nc(-c4cc5ccccc5oc4=O)[nH]c(=O)c3c2C)c1,15.1%

row,SMILES,inhibition
1,COC(=O)c1c(C)sc(-c2c(-c3cccc(Cl)c3)[nH]c3c2c(=O)[nH]c(=O)n3C)c1O,-5.61%
2,COc1ccc(CCNC(=O)CCc2c(C)nc3c(c(C)nn3-c3ccccc3)c2C)c(OC)c1,-20%
3,COc1ccc(-c2noc(N3CCN(c4cccc(C)c4C)CC3)n2)cc1OC,-5.74%
4,COc1ccccc1C(=O)Nc1nnc(SCc2cc(=O)n3ccc(C)cc3n2)s1,-0.884%
5,CCc1cccc(C)c1NC(=O)C(C)Sc1nc2c(c(=O)[nH]1)CCCC2 (centres undefined),25.3%
6,Cc1cccc(N2CCN(C(=O)c3oc(=O)c4ccccc4c3-c3ccccc3)CC2)c1C,-7.26%
7,Cc1ccc(C(=O)Nc2ccc(OCc3cc(=O)n4c5c(sc4n3)CCCC5)cc2)cc1,22%
8,S=c1[nH]nc(Cc2c[nH]c3ccccc23)o1,active: 41.4%
9,Cc1c(NC(=O)c2ccc(N3CCC(C)CC3)c([N+](=O)[O-])c2)cccc1-c1nc2ccccc2o1,-2.84%
10,Cc1cc(NC(=O)Nc2csc3c2CCCC3)ccc1Br,-14.8%
11,COCCCNC(=O)C1CCC(Cn2c(=O)c3sccc3n(Cc3ccc(F)cc3)c2=O)CC1 (centres undefined),0.174%
12,COc1ccc(CCN2C(=O)N(c3ccc(F)cc3)C(=O)C2CC(=O)Nc2ccc(F)c(F)c2)cc1 (centres undefined),6.53%
13,CCOc1ccc(N(CC(=O)NCc2ccc(Cl)cc2)S(=O)(=O)c2c(C)noc2C)cc1,-2.95%
14,CCCc1ccc(OCC(O)CN2CCN(c3ccccc3)CC2)cc1 (centres undefined),active: 68.7%
15,O=C(CSc1n[nH]c(-c2ccccc2Cl)n1)N1CCN(c2ccccc2F)CC1,-3.36%
16,CC1=C(C(=O)Nc2cccnc2)C(c2ccccc2)n2nc(SCc3ccccc3F)nc2N1 (centres undefined),-4.37%
17,Cc1oc(-c2ccc(C(=O)NCc3ccccc3)cc2)nc1CS(=O)(=O)c1ccccc1,-8.12%
18,COc1ccc(-c2coc3c2c(C)cc2oc(=O)cc(C)c23)cc1,-6.5%
19,O=C(NC1CCCC1)c1ccc2c(c1)N(Cc1ccccc1F)C(=O)c1ccccc1S2,-4.66%
20,Cc1ccccc1NC(=O)CN1C(=O)CCn2nc(-c3cccn3C)cc21,-10.2%
21,CCCCn1c(-c2ccc(C)cc2)c(C)n2c3c(=O)n(C)c(=O)n(C)c3nc12,-19.6%
22,Cc1ccc(OCCCCn2c(CCNC(=O)C(C)(C)C)nc3ccccc32)cc1,2.21%
23,Cc1ccc(S(=O)(=O)N2CCC(C(=O)NCCc3ccccn3)CC2)cc1,active: 42.6%
24,Cc1ccccc1-c1noc(CSc2nnc(-c3ccncc3)n2-c2ccc(F)cc2)n1,-11.7%

row,SMILES,inhibition
1,Cc1ncc(CO)c2c1Oc1nc(-c3ccccc3)nc(SCC(=O)Nc3cccc(C(F)(F)F)c3)c1C2,-8.92%
2,CCn1cc(C(=O)NCc2ccccc2Cl)c(=O)c2cc(S(=O)(=O)N3CCCCC3)ccc21,3.58%
3,CSc1ncc(C(=O)N2CCN(c3ccc(F)cc3)CC2)c(C)n1,-15.6%
4,Cc1ccc(C)c(N2CCN(C(=O)c3cc(S(=O)(=O)N4CCCC4)cn3C)CC2)c1,-10%
5,COc1ccccc1CCNC(=O)Cn1ccc2cc(S(=O)(=O)N3CCCCCC3)ccc21,-9.5%
6,CCc1nnc(SCc2nc(-c3ccc(OC)cc3)oc2C)c2cc3sccc3n12,6.83%
7,COc1cccc(-c2nn(C)c3sc(C(=O)N4CCN(c5cccc(C)c5)C(C)C4)cc23)c1 (centres undefined),-2.97%
8,CCOC(=O)C1CCC(CN(Cc2c(Cl)cccc2Cl)S(=O)(=O)c2ccc(F)cc2)CC1 (centres undefined),27.7%
9,Cc1cccc(C(=O)Nc2nc(-c3ccc(Br)cc3)ns2)c1,-9.02%
10,COc1cc(C(=O)N2CCc3c([nH]c4ccccc34)C2c2ccccc2)cc(OC)c1OC (centres undefined),0.635%
11,CCOC(=O)C1CCN(C(=O)Cn2ncc3c([nH]c4ccc(C)cc43)c2=O)CC1,-2.44%
12,CC(=O)N1CCC2(CC1)OC(=O)C(C)=C2C(=O)Nc1ccccc1C(F)(F)F,5.17%
13,COc1ccccc1OCCn1c(-c2ccc(Br)cc2)nc2ccccc2c1=O,-20.5%
14,Cc1cccc(N(CC(=O)NCCSc2ccc(Cl)cc2)S(=O)(=O)c2ccccc2)c1C,-12.3%
15,Cc1ccc2c(c1)N(C(=O)N1CCC(C(=O)NCc3ccco3)CC1)CC(C)O2 (centres undefined),-1.65%
16,CCCCOC(=O)c1ccc(NC(=O)Cc2coc3ccc(C(C)C)cc23)cc1,14.3%
17,CCc1ccc(OCC(=O)NCc2nc(-c3cccc(C)c3)no2)c(Br)c1,17%
18,COc1ccc(N2CCN(C(=O)c3ccc4c(c3)CCN4S(C)(=O)=O)CC2)cc1,6.27%
19,CCSc1nc2c(c(=O)[nH]c(=O)n2C)n1CC(O)COc1ccc(Cl)cc1 (centres undefined),12.3%
20,COC(=O)CNS(=O)(=O)c1ccc(Cc2ccc(S(=O)(=O)NCC(=O)OC)cc2)cc1,active: 41.3%
21,Cc1nc(SCC(=O)Nc2ccc(Br)cc2)[nH]c(=O)c1Cc1ccccc1,-12%
22,Cc1ccc(C)c(S(=O)(=O)c2nnn3c2nc(Nc2ccc(F)c(Cl)c2)c2sccc23)c1,8.52%
23,Cc1c(Cl)cccc1NC(=O)Cn1nc(C)c2sc3ccccc3c2c1=O,21.9%
24,COc1ccccc1NC(=O)c1c(NC(=O)c2ccccc2F)sc2c1CCC2,-8.44%

row,SMILES,inhibition
1,COC(=O)c1c(NC(=O)c2ccccc2C(=O)O)sc2c1CCCC2,-15.9%
2,COc1ccc(Cn2ccc3nc(C)c(C(=O)Nc4ccc(C)c(F)c4)cc3c2=O)cc1,-0.224%
3,Cc1cc(N2CCC(C)CC2)nc2ccc(NC(=O)/C=C/c3cccc(Cl)c3)cc12,9.73%
4,CCOc1ccc(-c2c(C)nn3c(C)c(C(=O)NCc4ccc(C)o4)cnc23)cc1OCC,-2.94%
5,CC(C)c1ccc(Nc2c(-c3ccccc3O)nc3cnccn23)cc1,-14.8%
6,c1ccc(CCNCCOc2ccccc2)cc1,active: 48.1%
7,CSc1ccc(CNC(=O)c2cc3c(=O)n(Cc4ccco4)ccc3nc2C)cc1,-5.5%
8,CCc1ccccc1NC(=O)CSc1nnc(CC)c(CC)n1,1.38%
9,CC(=O)N1CCc2c(sc3c2c(=O)n(-c2ccc(C)cc2)c(=O)n3CC(=O)Nc2ccccc2)C1,-24.3%
10,O=C(NCCc1ccc(Cl)cc1)c1ccc(CS(=O)(=O)Cc2ccccc2F)o1,9.33%
11,Cn1c(Oc2ccc(F)cc2)nc2c1c(=O)n(Cc1ccccc1Cl)c(=O)n2C,-4.6%
12,CCCn1c(SCC(=O)c2ccc3c(c2)OCCO3)nc2c1c(=O)n(C)c(=O)n2C,active: 30.9%
13,CS(=O)(=O)N1CCc2cc(C(=O)N3CCN(c4ccc(F)cc4)CC3)ccc21,1.47%
14,Cc1ccc(-n2c(SCC(=O)Nc3cccc(Cl)c3)nc3n[nH]c(C)c3c2=N)cc1,6.85%
15,Cc1ccc(N2CC(NC(=O)c3ccc4c(c3)OCO4)CC2=O)cc1 (centres undefined),-1.78%
16,CC(=O)N1CCCc2ccc(NS(=O)(=O)c3ccc(F)cc3F)cc21,3.59%
17,Cc1ccccc1NC(=O)Cn1nc(-c2ccc(F)cc2)c2cnc3ccccc3c21,-6.65%
18,CN(C)CCN1C(=O)C(=O)/C(=C(/O)c2ccc(OCc3ccccc3)cc2)C1c1ccncc1 (centres undefined),active: 42%
19,COc1ccc(N2CCN(C(=O)c3nc(-c4ccc(Cl)cc4)n4c3CCCCC4)CC2)cc1,7.49%
20,Cc1ccc(Cl)cc1N1CCN(CCNC(=O)Nc2ccc(Cl)cc2)CC1,26.5%
21,COc1ccc(NC(=O)c2nnn(Cc3ccc(Br)cc3F)c2N)c(OC)c1,-6.17%
22,CC(C)c1cccc(C(C)C)c1NC(=O)c1ccccc1,active: 42.8%
